Consider 14 molecules from PMC12136788.

First the molecules themselves.
T1: UNK ZnF1-3 (human, UniProt Q9C0B0 31-174)
T1 sequence: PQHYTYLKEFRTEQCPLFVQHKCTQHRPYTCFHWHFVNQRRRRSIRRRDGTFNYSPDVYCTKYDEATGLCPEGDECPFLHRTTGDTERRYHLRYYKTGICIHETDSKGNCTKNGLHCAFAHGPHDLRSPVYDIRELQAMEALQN

B1: chr12:111867003:111867004:+_ENSMUSG00000018707_ENSMUST00000018851|mus_mus|FALSE|FALSE (ssRNA)
RNA: GGGAGUUCUACAGUCCGACGAUCUACCAACAUGUUUAUCUUCAUGUAGCCUUUCAGCAGCCUCUGAACAAACUCAUAGGAAGCAUACUGCCGAAGCCUCGCAGGGAAGUUCUUCAGCUGGUUCAAGAGGCCGUCUAGGUUUUGCAACAGAGGAUUGAGCAUCA
B2: 8830324_8830444_192_5pUTR_ENSMUSG00000022507_ENSMUST00000023150|mouse|control|control (ssRNA)
RNA: GGGAGUUCUACAGUCCGACGAUCGCCCAGGCCUCUGUGCAAGCCCGCGGAGCCGGCACCCACCCCGCACAGCCCGAGUCCUCUGCCCACCAACCCCGCUCCGAGGUGCCGCACCCUGCCCUAGCCUCGCCCGCACCCCUUUACCAACAGAGGAUUGAGCAUCA
B3: 111065425_111065545_1520_3pUTR_ENSG00000134986_ENST00000257435|human|control|control (ssRNA)
RNA: GGGAGUUCUACAGUCCGACGAUCAAUUUAUUUUUGUUUAUCCAUUUCGUUGGGAGCAAGGACAAAAAUGUAAAUCUACACCUUGCUUAUCAAAAUUGCCGAAAAAAGAAUGCUCUGCCUUUUAAAAAAGUAUCAUGAUUUUGUCAACAGAGGAUUGAGCAUCA
B4: chr2:112102183:112102184:+_ENSMUSG00000027133_ENSMUST00000028553|mus_mus|FALSE|FALSE (ssRNA)
RNA: GGGAGUUCUACAGUCCGACGAUCUGCUCGUUGAGGUAAUAUUGGAGAAACAUAACUGCCCUCAGCAAAAAGACACACGUACUACCGCCAGCCGCGUUUACUCCGAGUGCGCCGCUUCAAUCGCGUGCGCCAACAACCUUCCAGCAACAGAGGAUUGAGCAUCA
B5: chr15:81535460:81535461:-_ENSMUSG00000022391_ENSMUST00000052374|mus_hu|FALSE|FALSE (ssRNA)
RNA: GGGAGUUCUACAGUCCGACGAUCAGAAGACGUUAAAACCCAAAUCCCGACAGGAGGCACAGACCUGCACAUGCGCCACACCCACACACAUACUCAGGGGACUGACAGGACACAUGGGACACAGACCCGCCCUGCCUGUGGCCACAACAGAGGAUUGAGCAUCA
B6: chr6:31635678:31635679:+_ENSG00000204435_ENST00000375882|hu_hu|FALSE|FALSE (ssRNA)
RNA: GGGAGUUCUACAGUCCGACGAUCCAAGAUCAUGUCUAGAGCUUGUCGAUAGUGAGGGACCUGCUCAUUGAGUCCAGUAAGAUUAAAUUUGUCCUGGAUGUAGUCUUCAUCCACUUCACAGAAGAAUUCAUUGCCACGGAGCCCCAACAGAGGAUUGAGCAUCA
B7: 59155668_59155788_2246_3pUTR_ENSMUSG00000055254_ENSMUST00000079828|mouse|control|control (ssRNA)
RNA: GGGAGUUCUACAGUCCGACGAUCAAAGACCAUGAUGAGUGGGUCGCCCUCCACACAGACACCGUAGAACUUGACAAUGUGCUCGUGCUGGAGGUUGGUCAGCAGCUCAGCUUCCCGAUGAAAGUCCUUGCGUGCAUUGUCGCUCAACAGAGGAUUGAGCAUCA
B8: chr9:74984206:74984207:+_ENSMUSG00000034593_ENSMUST00000123128|mus_mus|FALSE|FALSE (ssRNA)
RNA: GGGAGUUCUACAGUCCGACGAUCACCGAUGAUUCUGUACCUCUUGUCAAAACCAAUUUCAAUAUAUUUUCCAAACCGGCUGCUAUUAUCAUUCCUGGUUGUUUUGGCAUUUCCAAUUGACUCCAUGAUGGGGUUGGAGGCCAACAACAGAGGAUUGAGCAUCA
B9: chr9:113828744:113828745:+_ENSMUSG00000033392_ENSMUST00000111838|mus_mus|FALSE|FALSE (ssRNA)
RNA: GGGAGUUCUACAGUCCGACGAUCAAGUAAUGUUAUGUACAGUUUUAUUGCCAGUAUAUGCACAACAGUAAGCAUAGAGCUAUAAAUACACAAUGUCAUUAACAGUAGAAAACAAAACUGUUACAGUAGGGAGAGGGUGUGGAGCAACAGAGGAUUGAGCAUCA
B10: chrX:69798090:69798091:-_ENSMUSG00000031343_ENSMUST00000055966|mus_mus|mus_mus_mus_hu_False|28_38 (ssRNA)
RNA: GGGAGUUCUACAGUCCGACGAUCAAGUCCCCGGGUUCUUGUCGUCUUGAUUCCCCUUGACCAGUGGUUCCAGGGAGAAUAUUAAUCAGGAAAAGAAGUACAACUCUGGUCACAUAACAGUGACUUGUUUGUGUGAUUAUCAUCCAACAGAGGAUUGAGCAUCA
B11: chr11:2905015:2905016:-_ENSG00000129757_ENST00000380725|hu_hu|motif|central (ssRNA)
RNA: GGGAGUUCUACAGUCCGACGAUCUUCAAAAUUUAAAAACAAAACCGAACGCUGCUCUGCGGCAGCCGCCGCCGGUUGCUGCGGCAUGAACGGUCCCAGCCGAGGCCCAGCGCCCUUCCAACGUCCGCUGCCCCGGCAGGUUCCCAACAGAGGAUUGAGCAUCA
B12: chr14:15598107:15598108:+_ENSMUSG00000021733_ENSMUST00000057015|perfect_dup|FALSE|FALSE (ssRNA)
RNA: GGGAGUUCUACAGUCCGACGAUCUUGCCCAGCAAACAAUGAAUAGGCAAUCCCAGUUAAUGAUGCUCCAAAAAGAGACUCUAUUGCACUUAUUCUGCCUUCUGUAGCUUCUCCAAGCAGCCCUCCAAAAGUGAUUACAGGAGACAACAGAGGAUUGAGCAUCA
B13: chr20:37186997:37186998:+_ENSG00000170471_ENST00000397040|hu_hu|motif|central (ssRNA)
RNA: GGGAGUUCUACAGUCCGACGAUCAUCAAAAAAUCCAGGUAUCGUGGAAUCAAGUGCAAUAAGGUGAGGAGGUAGACGACGGUUUGCAGGUUCCUUCAGUGCUUCUAAGGACAAAAAUCCAAAGUGUGAGAGAAAAAGGCGGGCCAACAGAGGAUUGAGCAUCA
B14: chr9:111175947:111175948:+_ENSMUSG00000046785_ENSMUST00000060711|mus_mus|motif|central (ssRNA)
RNA: GGGAGUUCUACAGUCCGACGAUCGGCCUGAAGUUUUGUUAGCUCCACUCUUACAGAAAUAGGCGCAUAUUCCGGUUUAAAGCGGAAUGGAUUUGAGAAAAGUUCUAAGUCCUUUUUAAUGAACCUGAGGUCCUUAAAAUGUCUCAACAGAGGAUUGAGCAUCA

Some of the results follow.

For this experiment, the target named is T1, UNK ZnF1-3. In words: nsRBNS (natural sequence RNA bind-n-seq); RBNS binding buffer (assumed for nsRBNS): 25 mM Tris pH 7.5, 150 mM KCl, 3 mM MgCl2, 0.01% Triton X-100, 500 ug/ml BSA, 20 U/ml SUPERase-In, 4 C; UNK is unkempt and MSI1 is Musashi-1; names of the RNAs are library labels; protein concentration not given here; high values mean tight binding.
B1 yielded a binding signal of 0.594 enrichment R. As to B2, the binding signal is 1.45 enrichment R. Turning to B3, the binding signal was 1.35 enrichment R. Molecule B4 had a binding signal of 0.907 enrichment R. B5 registered a binding signal of 1.1 enrichment R.

For the molecule B6, the binding signal is 0.981 enrichment R. The figure for B7 is 0.625 enrichment R; for B8 it is 0.711 enrichment R; for B9 it is 1.36 enrichment R. B10 showed a binding signal of 0.658 enrichment R.

For B11, the binding signal amounted to 0.604 enrichment R. In the case of B12, the binding signal turned out to be 1.34 enrichment R. The molecule B13 had a binding signal of 1.75 enrichment R. The molecule B14 returned a binding signal of 0.617 enrichment R.
